Results: PubChem BioAssay AID504339 (National Center for Advancing Translational Sciences (NCATS), 2011)
Out of some 390,000 compounds screened, about 17,000 (4.4%) were called active. Inconclusive means that the source gave no clear call. Such entries were picked first, then a sample of the others. Calls come from the whole dose curve; as a rule, active = well fitted inhibition curve with a large enough effect; inconclusive = small, poorly fitted or top-dose-only effect; inactive = no such curve, though single readings can be large or run the other way. A potency beside an inconclusive call is a rough fit, not a confirmed value.

Molecular target: Lysine-specific demethylase 4A (Homo sapiens) (UniProt O75164)
Experiment: qHTS Assay for Inhibitors of JMJD2A-Tudor Domain; note: nearly all actives have a fitted effect of over 50% in size
Conditions: AlphaScreen JMJD2A-Tudor / H3K4me3 peptide binding; activity change, negative = inhibition: at 114 µM (top of the series)
% is set by controls: 0 for no effect and ±100 for the full control effect; potency is the fitted concentration of half-maximal effect; tags give direction and shape of the fitted curve.

UniProt O75164, sequence (O75164 whole entry, looked up, the tested form may be a part): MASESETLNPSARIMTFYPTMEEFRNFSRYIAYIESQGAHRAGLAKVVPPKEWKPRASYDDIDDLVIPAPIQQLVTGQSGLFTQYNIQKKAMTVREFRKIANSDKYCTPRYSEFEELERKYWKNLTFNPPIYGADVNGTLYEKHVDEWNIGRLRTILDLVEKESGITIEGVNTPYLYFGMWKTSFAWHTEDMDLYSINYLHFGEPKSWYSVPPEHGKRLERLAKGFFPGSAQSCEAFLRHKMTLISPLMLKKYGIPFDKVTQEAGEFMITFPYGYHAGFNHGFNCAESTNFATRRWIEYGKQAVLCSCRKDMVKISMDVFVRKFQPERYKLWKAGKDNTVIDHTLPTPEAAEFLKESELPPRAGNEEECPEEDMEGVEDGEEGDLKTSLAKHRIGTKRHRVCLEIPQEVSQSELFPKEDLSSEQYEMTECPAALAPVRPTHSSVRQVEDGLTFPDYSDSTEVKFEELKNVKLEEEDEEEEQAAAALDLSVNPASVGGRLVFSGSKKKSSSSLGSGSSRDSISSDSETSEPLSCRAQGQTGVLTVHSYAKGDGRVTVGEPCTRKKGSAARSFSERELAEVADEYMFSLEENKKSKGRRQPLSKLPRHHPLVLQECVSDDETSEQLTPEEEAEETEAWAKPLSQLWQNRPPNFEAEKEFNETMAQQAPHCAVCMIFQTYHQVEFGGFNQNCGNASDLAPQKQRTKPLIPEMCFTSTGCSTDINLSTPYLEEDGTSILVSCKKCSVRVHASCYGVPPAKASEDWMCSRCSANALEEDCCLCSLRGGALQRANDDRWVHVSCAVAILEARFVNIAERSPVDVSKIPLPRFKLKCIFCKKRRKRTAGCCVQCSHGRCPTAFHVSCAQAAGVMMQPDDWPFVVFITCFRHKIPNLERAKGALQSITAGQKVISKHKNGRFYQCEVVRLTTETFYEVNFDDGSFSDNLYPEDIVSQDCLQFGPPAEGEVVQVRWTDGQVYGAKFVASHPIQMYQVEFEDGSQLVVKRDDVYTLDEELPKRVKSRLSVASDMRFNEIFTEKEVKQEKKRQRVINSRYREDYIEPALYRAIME

Compound | Potency | activity change, negative = inhibition
O=C(Nc1nccs1)c1nc[nH]c1C(=O)N1CCN(c2ccccc2)CC1 | active: 31.6 µM | –
Cc1nnc(SCC(=O)N2CCCc3ccccc32)[nH]c1=O | inconclusive: 79.4 µM [inhibitor, partial curve] | –
COC(=O)C1=C(C)Nc2[nH]c(=S)[nH]c(=O)c2C1c1ccc(O)cc1 (stereo not drawn) | inconclusive: 44.7 µM [inhibitor, partial curve] | –
CC(C)c1ccc(/C=N/n2c(-c3ccccc3)n[nH]c2=S)cc1 | inconclusive: 20 µM [inhibitor, full curve, poor fit] | –
CCn1nc(C)cc1C(=O)N1CCc2c([nH]c3ccccc23)C1c1cc(F)ccc1F (stereo not drawn) | inconclusive: 50.1 µM [inhibitor, partial curve] | –
CC(=NNC(=S)N1CCC1)c1ccccn1 | active: 20 µM | –
CCc1ccc(NC(=O)CSc2ccnc(=O)[nH]2)cc1 | – | inactive: -0%
CCOc1ccc(NC(=O)CN(C)C(=O)c2cccnc2Sc2ccc(Cl)cc2)cc1OCC | – | inactive: -17.8%
Cc1cc(C)nc(N2CCC(C(=O)O)CC2)n1 | inconclusive: 89.1 µM [inhibitor, single point] | –
CCN(CC)S(=O)(=O)c1ccc(C(=O)Nc2cc(C)cc(C)c2)cc1 | – | inactive: -2.52%
COC(=O)CCC(=O)OC1(C)C(=O)C2=CN(Cc3ccc4c(c3)OCO4)C(c3ccc(OC)cc3)=CC2=C(Br)C1=O (stereo not drawn) | inconclusive: 28.2 µM [inhibitor, full curve] | –
CC1CCN(C(=O)c2cc(-c3ccccc3O)on2)CC1 | – | inactive: -23.6%
Cc1ccc2oc(=O)n(CCC(=O)Nc3ccc(N4CCOCC4)cc3)c2c1 | – | inactive: -17.8%
COc1ccc(-n2c(=O)c3c4c(sc3n3c(=S)[nH]nc23)CCCC4)cc1 | active: 56.2 µM | –
O=C(Nc1ccc(F)cc1Cl)C1=COCCO1 | – | inactive: -15.1%
COc1cc(C(=O)OCCN2CCOCC2)ccc1O | inconclusive: 89.1 µM [inhibitor, single point] | –
COc1ccc(C(=O)NC(=S)Nc2ccccc2N2CCOCC2)cc1Br | inconclusive: 50.1 µM [inhibitor, partial curve] | –
O=[N+]([O-])c1ccc2c(c1)/C(=N\O)c1ccccc1-2 | – | inactive: -23.3%
CCC1CN(C(=O)Nc2ccccc2F)c2cc(C)ccc2O1 (stereo not drawn) | – | inactive: 36.5%
COc1ccc(N(C(=O)Cc2cccs2)C2C=CS(=O)(=O)C2)cc1 (stereo not drawn) | – | inactive: -25.1%
CC1Cc2ccccc2N1CC(=O)NC(=O)NCc1ccccc1 (stereo not drawn) | inconclusive: 63.1 µM [inhibitor, partial curve, poor fit] | –
COc1ccc2[nH]c3c(c2c1)CCN1C(=O)C(CC(=O)NC(C)(C)C)C[C@H](C(=O)N2CCOCC2)[C@@]31CCC1CCCC1 (stereo partly drawn) | inconclusive: 100 µM [inhibitor, partial curve] | –
O=C(COC(=O)CC1CCCC1)Nc1ccccc1[N+](=O)[O-] | inconclusive: 56.2 µM [inhibitor, partial curve] | –

Compound | Potency | activity change, negative = inhibition
COc1ccc2[nH]c(C)c(CCN(Cc3cccs3)C(=S)Nc3ccc(F)cc3)c2c1 | inconclusive: 35.5 µM [inhibitor, partial curve] | –
O=C(NCCCN1CCN(c2ccc(F)cc2)CC1)C1COc2ccccc2C1 (stereo not drawn) | inconclusive: 89.1 µM [inhibitor, partial curve] | –
COc1ccc(Cl)cc1NC(=O)Cn1c(=O)n(Cc2nc(C)no2)c(=O)c2ccccc21 | – | inactive: -8.62%
CC(=O)NC1C(=O)N=C(SCC(=O)Nc2ccc(C(F)(F)F)cc2Cl)NC1=O (stereo not drawn) | inconclusive: 100 µM [inhibitor, single point] | –
COc1ccc(C(=O)N/N=C/c2ccc(OC(=O)c3cccc4ccccc34)c([N+](=O)[O-])c2)cc1 | inconclusive: 39.8 µM [inhibitor, partial curve] | –
COCCn1nnnc1C(c1ccc(OC)cc1OC)N1CCN(c2ccccc2)CC1 (stereo not drawn) | inconclusive: 79.4 µM [inhibitor, partial curve] | –
CCc1cc2c(=O)[nH]c(-c3ccccn3)nc2s1 | active: 25.1 µM | –
CCNC(=S)N(CCc1c(C)[nH]c2ccc(C)cc12)Cc1cc(OC)c(OC)c(OC)c1 | inconclusive: 89.1 µM [inhibitor, partial curve] | –
O=C1C(Cl)=C(NS(=O)(=O)c2ccc([N+](=O)[O-])cc2)C(=O)c2ccccc21 | inconclusive: 56.2 µM [inhibitor, partial curve] | –
CCN1CCN(C(c2ccc(C(F)(F)F)cc2)c2ccc3cccnc3c2O)CC1 (stereo not drawn) | active: 50.1 µM | –
CN(C)CCCNCCCNC(=O)/C=N/O | inconclusive: 89.1 µM [inhibitor, single point] | –
Cc1cc2c(=O)n(Cc3ccco3)c(SCC(=O)N3CCCc4ccccc43)nc2s1 | inconclusive: 56.2 µM [inhibitor, partial curve] | –
Cc1cccc(C)c1OCc1nnc(SCC(=O)Nc2cccc(C(=O)N3CCOCC3)c2)n1C | inconclusive: 89.1 µM [inhibitor, single point] | –
Cc1ccc(NC(=S)N2CCOCC2)cc1 | – | inactive: 4.61% [at 57.1 µM]
CC(C)(C)c1cc(CN2CCOCC2)c(C(=O)O)o1 | inconclusive: 89.1 µM [inhibitor, single point] | –
Cc1c(/C(O)=C2/C(=O)C(=O)N(CCN3CCOCC3)C2c2ccccn2)cnn1-c1ccccc1 (stereo not drawn) | active: 50.1 µM | –
O=C(NC(=S)Nc1ccc(C(=O)N2CCOCC2)cc1)c1ccc([N+](=O)[O-])cc1 | inconclusive: 3.98 µM [inhibitor, full curve] | –
Cc1ccc(C(=O)Nc2ncc3c(Cl)cccc3n2)cc1 | inconclusive: 25.1 µM [inhibitor, single point] | –
COc1ccc(CCNC(=O)Cn2c(=O)cc(C(F)(F)F)c3c(C)nn(C)c32)cc1OC | – | inactive: -13.3%
COc1ccc(-c2cc(C(F)(F)F)nc(SCc3cccc(C(=O)O)c3)n2)cc1 | inconclusive: 89.1 µM [inhibitor, single point] | –
COc1ccc(NC(=O)/C(=C\c2ccc3c(c2)OCO3)NC(C)=O)cc1 | inconclusive: 39.8 µM [inhibitor, single point] | –
CC(=O)N1CCOc2ccc(S(=O)(=O)N3CCN(c4cc(C)ccc4C)CC3)cc21 | inconclusive: 39.8 µM [inhibitor, full curve, poor fit] | –
Cc1ccc(C=Nc2cc([N+](=O)[O-])ccc2C)s1 | – | inactive: -17.3%

Compound | Potency | activity change, negative = inhibition
Cc1ccc(N=Nc2ccc3ccccc3c2O)cc1 | active: 3.16 µM | –
CC(C)=C[C@@H]1C[C@H](C)[C@H]2CC[C@H](C)c3c(O[C@@H]4O[C@@H](C)[C@@H](O)[C@@H](O)[C@@H]4O)c(O)c(C)c1c32 | inconclusive: 44.7 µM [inhibitor, partial curve] | –
Cc1cccc(N2CCN(C(=O)c3ccc4c(c3)c(C)c(C)n4C)CC2)c1C | – | inactive: -1.95%
CC1=CC2=NC(=O)/C(=C\c3cccn3CCOc3cc(C)cc(C)c3)C(=N)N2O1 | inconclusive: 12.6 µM [inhibitor, full curve] | –
COc1ccc(CCN(C)C/C=C/c2ccccc2[N+](=O)[O-])cc1OC | active: 22.4 µM | –
CCCCC(=O)NC(NC(=O)CCCC)c1ccc(OCCC)c(OC)c1 | inconclusive: 89.1 µM [inhibitor, single point] | –
COc1ccc(NC(=O)N(C)C[C@H]2Oc3ccc(NS(=O)(=O)c4cccs4)cc3C(=O)N([C@@H](C)CO)C[C@@H]2C)cc1 | – | inactive: 2.88%
Cc1ccc(C(=O)N/N=C\c2ccc(-c3ccc(Cl)c(Cl)c3)o2)cn1 | inconclusive: 63.1 µM [inhibitor, partial curve, poor fit] | –
O=C(O)CSc1nnc(CNc2cccc(C(F)(F)F)c2)n1Cc1ccco1 | – | inactive: -15.7%
COc1ccc(/C=N/NC(=O)c2ccc(Cl)cc2)cc1Cn1cc(Cl)cn1 | – | inconclusive: -43.1% [inhibitor]
O=[N+]([O-])c1ccccc1S(=O)(=O)N1CCN(c2ccccc2)CC1 | inconclusive: 56.2 µM [inhibitor, partial curve] | –
COc1ccc(C(=O)/C=C/c2cccc(OCc3ccccc3)c2)cc1CSCC(=O)O | active: 50.1 µM | –
COc1cc2c(cc1OC)C(COc1ccc3c(C)cc(=O)oc3c1)N(C(=O)c1cccc(OC)c1OC)CC2 (stereo not drawn) | inconclusive: 39.8 µM [inhibitor, single point] | –
COc1ccccc1NC(=O)N(Cc1ccco1)Cc1cc2cccc(C)c2[nH]c1=O | inconclusive: 79.4 µM [inhibitor, partial curve] | –
CN(C(=O)CC1C(=O)NCCN1Cc1ccc(F)cc1)C1CCOCC1 (stereo not drawn) | inconclusive: 12.6 µM [inhibitor, partial curve] | –
Oc1ccc(Cl)cc1C1C=C(c2ccc3c(c2)OCO3)NC(c2c(F)cccc2Cl)N1 (stereo not drawn) | inconclusive: 89.1 µM [inhibitor, single point] | –
Cc1nc2cc(C(=O)OCC(=O)NC34CC5CC(CC(C5)C3)C4)ccc2n1-c1ccccc1 | – | inactive: -27.9%
Cc1ccc(N(CC(=O)Nc2c(C)cccc2C)S(C)(=O)=O)cc1 | – | inactive: -10.8%
c1ccc(CN2CCc3[nH]c4ccccc4c3C2)cc1 | inconclusive: 50.1 µM [inhibitor, partial curve] | –
Cc1c(NS(=O)(=O)c2ccc(N(C)C3CCCCC3)c([N+](=O)[O-])c2)c(=O)n(-c2ccccc2)n1C | inconclusive: 56.2 µM [inhibitor, partial curve, poor fit] | –
S=c1[nH]nc(-c2cccc(Br)c2)o1 | inconclusive: 89.1 µM [inhibitor, partial curve] | –
CCOC(=O)c1ccc2c(c1)C1C=CCC1C(C(=O)OCC)N2 (stereo not drawn) | inconclusive: 56.2 µM [inhibitor, partial curve] | –
